Publication PMC11103113, “Evidence for dual targeting control of Arabidopsis 6-phosphogluconate dehydrogenase isoforms by N-terminal phosphorylation” (Journal of Experimental Botany, 2024)
These are yes or no findings as the source states them, for the method shown. Sequences can lack the tags named with a protein. Values belong to the binder of their own block, whether it stands above or below them.

Columns and labels:
[1] = target: His-PGD2 T6E (Arabidopsis thaliana) (UniProt Q9FWA3); assay: semi-native SDS-PAGE with anti-His immunoblot; His-PGD2 variants from cleared E. coli BL21minus extracts, sample buffer without SDS and DTT and without boiling; monomer to dimer
[2] = target: His-PGD2 Δ15 variant (His-PGD2mat) (Arabidopsis thaliana) (UniProt Q9FWA3); assay: as above

- binding [1]: no binding
B1: His-PGD2 T6E (enzyme, UniProt Q9FWA3 1-486)
chain: MAVQPERIGLAGLAVMGQNLALNIAEKGFPISVYNRTTSKVDETVERAKKEGNLPLYGFHDPESFVKSIQKPRVIIMLVKAGSPVDQTIKTLSAYLEKGDCIVDGGNEWYENTERREKAVAENGFLYLGMGVSGGEEGARNGPSMMPGGSYEAYKNIEDIVLKVAAQVRDSGPCVTYIGKGGSGNFVKMVHNGIEYGDMQLIAEAYDVLKSVGKLSNEELHSVFSDWNKGELESFLVEITADIFGIKDDKGDGHLVDKVLDKTGMKGTGKWTVQQAAELSVPAPTIESSLDARFLSGLKDERVQAAKVFKAGGFGDILTDQKVDKKQLVDDVRKALYASKICSYAQGMNLIRAKSIEKGWGLKLGELARIWKGGCIIRAIFLDRIKQAYDRNAELANLLVDPEFAKEIIERQSAWRRVVCLAINSGISTPGMSASLAYFDSYRRERLPANLVQAQRDYFGAHTYERTDVEGSFHTEWFKIARQSKI

- binding [2]: no binding
B2: His-PGD2 Δ15 variant (His-PGD2mat) (domain or fragment, UniProt Q9FWA3 16-486)
chain: MGQNLALNIAEKGFPISVYNRTTSKVDETVERAKKEGNLPLYGFHDPESFVKSIQKPRVIIMLVKAGSPVDQTIKTLSAYLEKGDCIVDGGNEWYENTERREKAVAENGFLYLGMGVSGGEEGARNGPSMMPGGSYEAYKNIEDIVLKVAAQVRDSGPCVTYIGKGGSGNFVKMVHNGIEYGDMQLIAEAYDVLKSVGKLSNEELHSVFSDWNKGELESFLVEITADIFGIKDDKGDGHLVDKVLDKTGMKGTGKWTVQQAAELSVPAPTIESSLDARFLSGLKDERVQAAKVFKAGGFGDILTDQKVDKKQLVDDVRKALYASKICSYAQGMNLIRAKSIEKGWGLKLGELARIWKGGCIIRAIFLDRIKQAYDRNAELANLLVDPEFAKEIIERQSAWRRVVCLAINSGISTPGMSASLAYFDSYRRERLPANLVQAQRDYFGAHTYERTDVEGSFHTEWFKIARQSKI
